# Measured values published in the supplement of paper PMC12217912.
# The other results are listed elsewhere or left out. The full chains were built here from the parent and the listed change. Values near 0.05 are background.
# B1: TEV protease; numbered along this chain (parent)
# chain: MGESLFKGPRDYNPISSSICHLTNESDGHTTSLYGIGFGPFIITNKHLFRRNNGTLVVQSLHGVFKVKDTTTLQQHLVDGRDMIIIRMPKDFPPFPQKLKFREPQREERICLVTTNFQTKSMSSMVSDTSCTFPSGDGIFWKHWIQTKDGQCGSPLVSTRDGFIVGIHSASNFTNTNNYFTSVPKNFMELLTNQEAQQWVSGWRLNADSVLWGGHKVFMVKPEEPFQPVKEATQL
# Variants of: B1
# Assay: raw area under fraction-flipped curve 0-4 h after induction (AUC4h, not background-subtracted), DNA-recorder readout of cleavage of the substrate (dimensionless); higher = more cleavage of the substrate by the protease variant
# Conditions: temperature: 34 °C; time window: 0-4 h after rhamnose induction
# Method: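 In vivo DNA recorder in E. coli TOP10(DE3) ΔrhaA at 34 °C. Each TEVp single-site mutant (parent TEVp 0) is paired with a single-site variant of the 7-mer TEVs (canonical ENLYFQ|S). The substrate sits between flexible linkers in a Bxb1-sfGFP-TEVs-SsrA fusion, so cleavage stabilises Bxb1 and speeds flipping of a recombination array, read by NGS. The value is the raw area under the fraction-flipped curve over 0-4 h after rhamnose induction (AUC4h), with ≥20 reads per time point. It is not background-subtracted; inactive controls average about 0.047.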
# 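Note: Bxb1 expression induced with 0.2% (w/v) L-rhamnose at OD600 near 0.5, cultures sampled hourly, flipped fraction per protease–substrate barcode pair counted by paired-end Illumina sequencing.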
Variant,area with substrate ENLYFQA,area with substrate ENLYFQC,area with substrate ENLYFQD,area with substrate ENLYFQG,area with substrate ENLYFQL,area with substrate ENLYFQM,area with substrate ENLYFQQ,area with substrate ENLYFQR,area with substrate ENLYFQS,area with substrate ENLYFQF
T181H,0.0543,0.0706,0.0283,0.0585,0.0537,0.0423,0.0489,0.0527,0.0574,–
T181K,0.0573,0.059,–,–,0.0599,–,–,0.0497,0.059,0.059
T181V,0.0728,0.0598,0.0836,–,0.0587,0.0731,–,–,0.0838,0.0535
V183G,0.0629,0.0817,–,0.0331,–,–,–,0.0518,0.0564,0.0388
K185N,0.112,0.114,–,0.0867,–,0.0897,0.0731,0.057,0.111,0.0781
N186H,0.0889,–,–,–,–,–,–,–,0.0959,–
N186T,0.0973,–,–,–,0.0585,–,–,–,0.105,–
F187A,0.0852,–,0.0628,–,0.0504,–,–,0.0598,0.0868,–
F187G,0.0573,0.0663,0.0579,0.0601,0.0546,0.0629,–,0.0501,0.0665,–
E189L,0.108,0.112,0.0649,0.0848,0.0701,0.0906,–,0.0552,0.0944,0.0813
L190D,0.0834,0.105,–,–,0.0661,0.0637,–,0.0411,0.0855,0.06
L190P,0.0685,0.0868,–,0.0813,–,–,0.0646,0.0638,0.0851,–
Q194A,0.0944,–,–,–,–,–,–,–,0.112,–
Q194W,0.0847,–,0.0555,–,0.0746,–,0.0374,0.043,0.1,–
E195L,0.0946,0.0889,0.0686,0.0501,0.0542,–,0.059,–,0.0936,–
A196V,0.0748,–,–,–,0.0832,–,–,0.0639,0.0951,0.0873

Variant,area with substrate ENLYFQA,area with substrate ENLYFQC,area with substrate ENLYFQD,area with substrate ENLYFQG,area with substrate ENLYFQL,area with substrate ENLYFQM,area with substrate ENLYFQQ,area with substrate ENLYFQR,area with substrate ENLYFQS,area with substrate ENLYFQF
Q198P,0.1,–,–,–,0.101,–,0.0638,0.0487,0.0874,–
Q198S,0.0681,0.0976,0.0729,–,–,0.0854,0.063,0.0591,0.0999,–
S201E,0.104,0.0987,–,0.1,0.0585,–,0.0503,0.0612,0.091,–
S201N,0.085,0.11,–,0.0837,0.063,0.0943,–,0.0605,0.0893,0.0764
G202I,0.066,–,–,–,0.0336,–,–,–,0.0621,–
W203D,0.0604,0.0518,0.0693,–,–,0.0448,–,–,0.0594,–
W203P,0.0686,–,–,–,0.0622,–,–,0.0453,0.0637,–
R204D,0.131,0.114,0.0548,–,0.0604,–,–,0.0588,0.0987,0.0702
L205S,0.0787,–,0.0664,–,–,–,–,0.0469,0.0775,–
L205Y,0.0963,0.088,0.0582,–,0.049,0.0691,–,0.0655,0.0809,–
N206C,0.0921,–,0.072,0.144,0.05,–,–,0.0542,0.0963,0.0776
N206R,0.101,0.0924,–,0.0801,0.0775,0.0725,–,0.0576,0.0882,0.0862
A207R,0.0744,–,–,–,–,0.0757,–,0.0954,0.0891,–
S209G,0.0919,0.0793,–,0.0873,–,–,–,0.0614,0.093,–
S209K,0.0814,0.112,–,–,–,–,0.0679,–,0.0823,–
V210P,0.0586,0.0703,–,–,0.0496,0.0544,–,–,0.0645,0.0774

# Same assay, conditions: temperature: 34 °C; time window: 0-4 h after rhamnose induction
Variant,area with substrate ENLYFQI,area with substrate ENLYFQK,area with substrate ENLYFQN,area with substrate ENLYFQP,area with substrate ENLYFQV,area with substrate ENLYFQW,area with substrate ENLYFQH,area with substrate ENLYFQT,area with substrate ENLYFQY,area with substrate ENLYFQE
T181K,0.0591,0.062,0.049,0.066,0.0548,0.05,–,–,–,–
T181V,0.0869,–,–,–,–,–,0.0528,0.0553,0.0667,–
V183G,–,–,0.0599,–,–,–,0.0498,0.0316,0.037,–
K185N,–,0.0794,0.0677,–,0.0593,0.0575,–,0.059,0.114,–
N186T,0.0566,–,0.0858,–,–,0.0728,0.0793,–,0.0626,–
F187A,0.037,0.0819,–,–,–,0.0411,0.0626,0.064,0.0543,–
F187G,0.0503,0.0581,0.0525,0.0637,0.0703,0.0554,0.0461,–,–,–
E189L,0.0472,0.0621,0.052,–,0.0615,0.0721,–,0.0625,–,–
L190D,–,0.0721,0.0503,–,0.0817,–,0.0642,0.056,0.0622,0.0702
L190P,0.0632,0.0688,–,–,–,0.0643,–,0.0616,0.0604,–
Q194A,–,0.0574,0.0673,0.0538,0.0645,–,–,0.111,–,–
Q194W,0.0719,–,–,–,–,–,–,0.0581,–,0.0634
E195L,–,–,0.0817,–,–,–,–,–,–,–
A196V,0.087,–,0.0995,0.0376,0.0648,–,–,–,–,–
Q198P,–,–,0.0749,0.0642,–,–,–,–,–,–
Q198S,0.0529,0.0566,–,0.0426,–,0.0578,0.0732,0.0677,0.0897,0.0651
S201E,0.0551,0.0463,0.0676,–,–,0.0611,0.0954,0.0742,–,–
S201N,–,–,0.0558,–,–,0.082,–,0.055,0.0584,–
G202I,–,0.047,0.0586,–,0.0312,0.0539,–,–,–,–
W203D,0.0558,0.06,–,0.0536,–,0.0572,–,–,–,0.0641
W203P,–,0.0629,–,0.0457,–,–,0.0775,0.0399,0.0663,–
R204D,0.0654,0.0595,0.084,0.0505,–,0.066,0.0924,0.0551,0.072,0.0621
L205S,–,–,–,–,–,–,–,–,0.0613,–
L205Y,–,0.0504,0.0534,0.0673,0.0604,–,0.061,0.0388,–,–
N206C,0.0561,–,0.0657,–,0.0618,0.0757,0.069,0.063,0.075,0.0844
N206R,0.0561,0.0633,0.0715,0.0801,–,–,–,0.0609,–,–
A207R,–,–,–,0.0711,–,–,0.064,–,0.0778,–
S209G,0.0627,–,–,–,0.0632,–,0.0588,0.0516,0.0864,–
S209K,0.0589,–,–,–,–,0.0598,–,0.0642,–,–
V210P,–,0.0582,–,–,–,0.0621,0.0613,0.0625,0.0494,–
